From the supplement of paper PMC3334620
Over roughly 33,000 sequences, “E-score (-0.5 to 0.5)” has its median near -0.054; the highest 2% begin near 0.39. The list shows a part of the results.

Molecular target: Ylr278c (UniProt Q05854)
Test: PBM E-score (8-mer binding enrichment) (E-score (-0.5 to 0.5)); higher = stronger / more preferred TF binding; most listed sequences are background and not binding sites
Conditions: protein concentration: 200 nM; construct: GST-DNA-binding domain
Experimental: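 Universal 'all 10-mer' protein binding microarrays (Agilent AMADID 015681) probed with GST-tagged S. cerevisiae TFs (full-length or DBD) made by in vitro transcription/translation (PURExpress), about 100-200 nM. Bound TF was detected with fluorescent anti-GST. Each ungapped 8-mer (which stands for itself and its reverse complement) is scored by the PBM enrichment score (E-score), a modified Wilcoxon-Mann-Whitney statistic from -0.5 to +0.5, computed with the Universal PBM Analysis Suite. Scale: above 0.35 generally sequence-specific binding.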

Point of comparison: CGGTCATC, “PBM E-score” value 0.226. Against it:
- AAAATGGG — lower, -0.0374
- AGCTCGGC — lower, 0.187
- AGCCACTA — lower, -0.203
- GAGAAGGA — lower, -0.113
- CACTATAG — lower, -0.289
- ACGTGCGG — lower, 0.196
- CTCTTCTA — lower, -0.184
- ATATCCTA — lower, -0.0758
- GGATTTAC — higher, 0.287
- CCCCACGG — lower, 0.206
- GAATCTCA — lower, 0.0136
- GAAGGTAA — lower, 0.00031
- CTCAGATC — lower, -0.0641
- ACGCCGTC — higher, 0.276
- ACTAATGC — lower, 0.126
- AAGAACTG — lower, -0.159
- AGCCTGAT — lower, -0.197
- GGCGTCGA — lower, 0.0785
- ATACGCAC — lower, 0.0272
- ATCGTCCA — lower, -0.0607
- TGTGGGAA — lower, -0.19
- CCGACCTC — lower, 0.201
- CTCAGACA — lower, -0.102
- AATCATTG — lower, -0.358
- GGTTATGA — lower, -0.125
- AAGCTCCC — lower, -0.139
- GGTGATCA — lower, -0.177
- CAGGCTCA — lower, -0.342
- ACGGAGTA — higher, 0.452
- AGACATTG — lower, -0.181
- TACTGAAA — lower, 0.0164
- GGCTAAGA — lower, -0.105
- AGCGCCGG — higher, 0.388
- AACCAGTT — lower, -0.0634
- CGTACACC — lower, 0.182
- GCCCCGAC — higher, 0.278
- AAAGGGCT — lower, -0.165
- ACGCGCGT — lower, 0.0445
- AGCCTCGG — lower, 0.152
- TATTATAA — lower, -0.15
- AGATGTCA — lower, -0.00393
- ACGTACAC — lower, -0.0862
- CCAAAACG — lower, -0.0714
- TACACCAA — lower, -0.0449
- CCACAGGA — lower, -0.0449
- AAGAGCCC — lower, -0.107
- AGGCCACT — lower, -0.162
- TCGCAGAA — lower, -0.159
- AATAGTCT — lower, -0.223
- TACCAAGA — lower, -0.0469
- ATGTCGGC — lower, 0.0736
- GCAGTTGA — lower, 0.0307
- CCCCAGCA — lower, -0.0256
- AACTGCCC — lower, -0.138
- ACAGTTTC — lower, -0.0443
- CTGGCGTC — lower, -0.271
- CACCCGAC — lower, 0.0867
- ATTCCCTA — lower, -0.0227
- CCTTTTCA — lower, -0.223
- AAGCGCCA — lower, -0.309
- AGTCCAAA — lower, -0.107
- ACTTCAAT — lower, 0.045
- ATTGTTGC — lower, -0.197
- CGACTGCA — lower, -0.158
- AACCGACT — lower, 0.0682
- AACAAACC — lower, 0.102
- AGTGACTA — lower, -0.0559
- ACAGATGC — lower, -0.19
- AGGCCATG — lower, -0.266
- GCAAAAAC — lower, 0.0286
- CTCAAGAC — lower, 0.00013
- ACCTATAG — lower, -0.307
- TCAGTAAA — lower, -0.0695
- CCTCATAC — lower, -0.149
- CGCCGCGA — higher, 0.258
- GTTAACTA — lower, 0.0878
- CGTCCCAA — lower, -0.212
- CTCACCCC — lower, 0.165
- CATCTCCC — lower, 0.216
- ATGGCCAC — lower, -0.259
- TAAGAGGA — lower, -0.0178
- ATGAAAAT — lower, -0.0688
- CAGTTCAG — lower, -0.159
- AAAATTAC — lower, -0.0512
- AAGGCGAG — lower, -0.252
